Test results published in the supplement of paper PMC12645437, “Orthogonal IMiD-Degron Pairs Induce Selective Protein Degradation in Cells” (ACS Chemical Biology, 2025).
This is one part of the list.

These sequences were tested against no compound (DMSO) (assay: log2 fold change of degron read counts, EGFP-low vs EGFP+ sorted cells; higher = lower degron-EGFP level without compound (poor expression or instability)). Details: compound: DMSO control; 18 h.
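Note: jurkat cells carrying a lentiviral library of mutant zinc finger degrons fused to EGFP plus mCherry, mCherry+ cells FACS sorted, degron abundance counted by next-generation sequencing.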

Row | Sequence | log2 fold change of degron read counts
1 | FICDICGAAFTQKGNLLRHIKL | -1.74
2 | FSCSVCGHPFTQKGNLLRHIKL | -0.0974
3 | FLCNICGAHFTQKGNLLRHIKL | -0.0712
4 | FACSVCGHFFTQKGNLLRHIKL | 0.412
5 | FHCNQCGAAFTQKGNLLRHIKL | -0.678
6 | FNCNQCGRNFTQKGNLLRHIKL | -0.221
7 | FLCEICGRTFTQKGNLLRHIKL | -1.8
8 | FHCPICGHPFTQKGNLLRHIKL | -0.15
9 | LECPICGFYCTQKGNLLRHIKL | 0.678
10 | FACPQCGAWFTQKGNLLRHIKL | 0.142
11 | FLCPVCGAWFTQKGNLLRHIKL | 1.68
12 | FDCNQCGHIFTQKGNLLRHIKL | 0.909
13 | FNCEQCGAAFTQKGNLLRHIKL | -0.803
14 | FLCPVCGAHFTQKGNLLRHIKL | -0.0365
15 | FRCNQCGHYFTQKGNLLRHIKL | 0.218
16 | FECEVCGASFTQKGNLLRHIKL | -1.99

Row | Sequence | log2 fold change of degron read counts
17 | LECPICGFNCTQKGNLLRHIKL | 0.338
18 | FMCEICGRDFTQKGNLLRHIKL | -1.6
19 | FACPVCGARFTQKGNLLRHIKL | -0.0127
20 | FHCEICGHSFTQKGNLLRHIKL | -1.35
21 | FRCPVCGAWFTQKGNLLRHIKL | 1.09
22 | LRCPICGFTCTQKGNLLRHIKL | 0.168
23 | LKCPICGFGCTQKGNLLRHIKL | 0.761
24 | FKCNQCGATFTQKGNLLRHIKL | -0.679
25 | FQCDQCGAHFTQKGNLLRHIKL | -1.78
26 | FYCNQCGRMFTQKGNLLRHIKL | 0.132
27 | LHCNQCGFPCTQKGNLLRHIKL | 0.453
28 | FLCSVCGHDFTQKGNLLRHIKL | -0.743
29 | FQCEQCGANFTQKGNLLRHIKL | -1.88
30 | FFCDICGAMFTQKGNLLRHIKL | -0.568
31 | FSCNICGAFFTQKGNLLRHIKL | 0.216
32 | FYCEICGRSFTQKGNLLRHIKL | -2.72
